Test results as given in PubChem BioAssay (NCATS).
This is one part of the list. The main result of the screen is listed elsewhere. These columns were measured beside it and carry no call. Most of these compounds were active or inconclusive in the main read-out, so they are no random draw. Potencies come from curve fits of mixed quality, noted in brackets. Square brackets hold non-standard residues; d marks the D form. Peptide text beside a SMILES is read from it.

Experiment: qHTS Assay for Lipid Storage Modulators (AID 1519)
Details: Drosophila S3 cells, BODIPY lipid droplet/cell ratio, laser cytometry, cells loaded with oleic acid
In short: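 Cells seeded at 5,000 per well were treated with compounds over a concentration series and loaded with oleic acid (400 uM, as added). Lipid droplet fluorescence (488 nm excitation, 500-530 nm channel) was read by laser-scanning cytometry and normalized to 20 uM Triacsin C.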

[1] = measured here: cell count channel max response
[2] = measured here: cell number channel AC50
[3] = measured here: lipid (BODIPY) channel AC50
[4] = measured here: lipid channel max response
Tags tell the direction and shape of the fitted curve.

| SMILES | max response [1] | AC50 [2] | AC50 [3] | max response [4] |
| --- | --- | --- | --- | --- |
| Cc1cnc(CNc2nc(-c3ccc4c(c3)OCO4)nc3ccccc23)cn1 | 16.6% | 0.0355 µM [rising, full curve] | 0.708 µM [rising, full curve, poor fit] | 31.4% |
| Cc1cc(=O)cc2oc3cc(N)c(-c4c(C)cc(O)cc4O)c(C)c3nc1-2 | -35.1% | 70.8 µM [falling, partial curve, poor fit] | 44.7 µM [falling, partial curve, poor fit] | -32.9% |
| Cc1noc(C)c1C(=O)N1CCC2(CCCN(c3ccccn3)C2)CC1 | 28.4% | 1 µM [rising, partial curve, poor fit] | 0.282 µM [rising, partial curve, poor fit] | 36.7% |
| COc1cccc(-c2ccc3ncnc(N4CCNCC4)c3c2)c1 | 45.4% | 12.6 µM [rising, partial curve, poor fit] | 11.2 µM [rising, partial curve, poor fit] | 54% |
| CC(=O)NCCNc1nc(-c2ccc(C(=O)N(C)C)cc2)nc2ccccc12 | 33.4% | 1.58 µM [rising, full curve, poor fit] | 1.26 µM [rising, full curve] | 43.8% |
| CCCCCCCCCCCCC(=O)N1CCCC[C@H]1CNC(=O)[C@@H](N)CCCCN | 88.8% | 31.6 µM [rising, partial curve] | 35.5 µM [rising, partial curve] | 132% |
| CSCC[C@H](C=O)NC(=O)[C@H](CC(C)C)NC(=O)[C@H](CC(C)C)NC(C)=O (Ac-Leu-Leu-[dM]-aldehyde) | 43.9% | 5.62 µM [rising, full curve, poor fit] | 14.1 µM [rising, single point] | 47.8% |
| COc1ccc2[nH]cc(CCNc3ncncc3-c3ccccc3OC)c2c1 | 13.8% | 2.82 µM [rising, partial curve] | 2.24 µM [rising, partial curve] | 12.8% |
| O=C(/C=C/c1ccc(OCc2ccccc2)cc1)c1cccs1 | 55.6% | 12.6 µM [rising, partial curve, poor fit] | 11.2 µM [rising, full curve] | 85.4% |
| CCNc1ncc2nc(-c3ccc(Cl)cc3)c(=O)n(-c3ccc(OC)cc3)c2n1 | 31.4% | 0.891 µM [rising, full curve, poor fit] | 0.562 µM [rising, full curve, poor fit] | 28.4% |
| CC(=O)OCC[N+](C)(C)C | 42.5% | 22.4 µM [rising, partial curve, poor fit] | 31.6 µM [rising, partial curve, poor fit] | 55.4% |
| CCOC(=O)c1c(C)[nH]c2ccc3c(c12)CN1CCc2cc(OC)ccc2[C@@H]1O3 | 27.7% | 2.82 µM [rising, full curve, poor fit] | 2.82 µM [rising, full curve, poor fit] | 7.43% |
| COc1c2ccoc2cc2oc(C)cc(=O)c12 | 40.1% | 1.12 µM [rising, partial curve, poor fit] | 2 µM [rising, partial curve, poor fit] | 57.4% |
| Fc1cccc(/C=N\N=C/c2cccc(F)c2)c1 | 90.3% | 14.1 µM [rising, partial curve] | 14.1 µM [rising, partial curve] | 121% |
| COc1ncc2nc(-c3cccs3)c(=O)n(CCC#N)c2n1 | 36.1% | 28.2 µM [rising, partial curve, poor fit] | 25.1 µM [rising, partial curve, poor fit] | 44.5% |
| COc1cccc(Cn2c(=O)c(-c3ccc(Cl)cc3)nc3cnc(N(C)C)nc32)c1 | 20.6% | 0.0398 µM [rising, full curve, poor fit] | 0.0562 µM [rising, full curve] | 25.4% |
| CC(=O)[C@H](CC(C)C)NC(=O)[C@@H](CC(C)C)NC(=O)[C@H](CC(C)C)NC(=O)OCc1ccccc1 | 53.1% | 14.1 µM [rising, partial curve, poor fit] | 2.82 µM [rising, single point] | 36% |
